From the supplement of paper PMC4967469

How the values were obtained:
Assay in all cases: Viability of human cancer cell lines after 72 h of drug (GDSC screen)
LFM-A13 = compound: C/C(O)=C(\C#N)C(=O)Nc1cc(Br)ccc1Br [LFM-A13]; conditions: top dose 16 µM; top dose inferred
Experimental: (§1)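 Human cancer cell lines in 384-well plates, medium with 10% serum, drug for 72 h over a 256-fold dose range (nine 2-fold or five 4-fold steps up to the top dose). Adherent lines were fixed and stained with the nucleic acid dye Syto60, suspension lines read with resazurin; signal relative to control wells, capped at 0 and 100%. One two-parameter sigmoid per drug and line, fitted in a mixed model over all curves with the slope shared within a line.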

TW-37 = compound: CC(C)c1ccccc1Cc1cc(C(=O)Nc2ccc(S(=O)(=O)c3ccccc3C(C)(C)C)cc2)c(O)c(O)c1O [TW-37]; conditions: top dose 5 µM
Experimental: as §1

Bicalutamide = compound: CC(O)(CS(=O)(=O)c1ccc(F)cc1)C(=O)Nc1ccc(C#N)c(C(F)(F)F)c1 [Bicalutamide]; conditions: top dose inferred
Experimental: as §1

AUY922 = compound: CCNC(=O)c1noc(-c2cc(C(C)C)c(O)cc2O)c1-c1ccc(CN2CCOCC2)cc1 [AUY922]; conditions: top dose 0.256 µM; top dose inferred
Experimental: as §1

KIN001-270 = compound: Cc1ccc(Nc2cc(-c3cccc(N4C(=O)c5ccccc5C4=O)c3)ncn2)cc1NS(C)(=O)=O [KIN001-270]; conditions: top dose 20 µM; top dose inferred
Experimental: as §1

Nilotinib = compound: Cc1cn(-c2cc(NC(=O)c3ccc(C)c(Nc4nccc(-c5cccnc5)n4)c3)cc(C(F)(F)F)c2)cn1 [Nilotinib]; conditions: top dose 2 µM
Experimental: as §1

Gemcitabine = compound: Nc1ccn([C@@H]2O[C@H](CO)[C@@H](O)C2(F)F)c(=O)n1 [Gemcitabine]; conditions: top dose 1.024 µM
Experimental: as §1

T0901317 = compound: O=S(=O)(c1ccccc1)N(CC(F)(F)F)c1ccc(C(O)(C(F)(F)F)C(F)(F)F)cc1 [T0901317]; conditions: top dose 10.24 µM; top dose inferred
Experimental: as §1

MP470 = compound: S=C(NCc1ccc2c(c1)OCO2)N1CCN(c2ncnc3c2oc2ccccc23)CC1 [MP470]; conditions: top dose 20 µM; top dose inferred
Experimental: as §1

[1] = top dose 1.024 µM, screen: GDSC drug entry 150
[2] = top dose 10 µM, screen: GDSC drug entry 1502

Cell Line	AUC (LFM-A13)	IC50 (LFM-A13) [nM]	AUC (TW-37)	IC50 (TW-37) [nM]	AUC (Bicalutamide; [1])	IC50 (Bicalutamide; [1]) [nM]	AUC (Bicalutamide; [2])	IC50 (Bicalutamide; [2]) [nM]	AUC (AUY922)	IC50 (AUY922) [nM]	AUC (KIN001-270)	IC50 (KIN001-270) [nM]	AUC (Nilotinib)	IC50 (Nilotinib) [nM]	AUC (Gemcitabine)	IC50 (Gemcitabine) [nM]	AUC (T0901317)	IC50 (T0901317) [nM]	AUC (MP470)	IC50 (MP470) [nM]
M059J (glioma, adherent)	0.983	> 16000	0.698	1180	0.985	> 1020	0.967	> 10000	0.511	17.1	0.93	> 20000	0.985	> 2000	0.309	17.7	0.985	> 10200	0.975	> 20000
MC-IXC (neuroblastoma, adherent)	0.996	> 16000	0.332	122	0.996	> 1020	0.993	> 10000	0.566	23.1	0.99	> 20000	0.996	> 2000	0.119	6.88	0.919	8010	0.906	14000
MEL-JUSO (melanoma, adherent)	0.981	> 16000	0.578	526	0.984	> 1020	0.979	> 10000	0.471	13.2	0.974	> 20000	0.98	> 2000	0.095	< 4	0.979	> 10200	0.935	> 20000
MES-SA (uterus, adherent)	0.991	> 16000	0.318	106	0.991	> 1020	0.99	> 10000	0.478	14	0.991	> 20000	0.992	> 2000	0.176	8.34	0.981	> 10200	0.962	> 20000
MFE-280 (endometrium, adherent)	0.972	> 16000	0.923	> 5000	0.98	> 1020	–	–	0.888	> 256	0.931	> 20000	0.982	> 2000	0.913	> 1020	0.978	> 10200	0.92	> 20000
MFE-296 (endometrium, adherent)	0.959	> 16000	0.083	< 19.5	0.985	> 1020	0.983	> 10000	0.543	21.2	0.975	> 20000	0.962	> 2000	0.346	23.1	0.976	> 10200	0.935	> 20000
MG-63 (osteosarcoma, adherent)	0.971	> 16000	0.427	191	0.984	> 1020	–	–	0.435	10.3	0.982	> 20000	0.969	> 2000	0.106	< 4	0.983	> 10200	0.984	> 20000
MHH-ES-1 (Ewing sarcoma, adherent)	0.94	> 16000	0.568	478	0.986	> 1020	0.98	> 10000	0.404	8.75	0.96	> 20000	0.947	> 2000	0.132	4.5	0.979	> 10200	0.912	> 20000
MKN28 (stomach, adherent)	0.971	> 16000	0.653	838	0.987	> 1020	–	–	0.439	10.9	0.971	> 20000	0.982	> 2000	0.894	> 1020	0.971	> 10200	0.945	> 20000
MKN45 (stomach, adherent)	0.973	> 16000	0.506	325	0.89	> 1020	0.978	> 10000	0.838	243	0.979	> 20000	0.976	> 2000	0.36	23.6	0.979	> 10200	0.951	> 20000
MOG-G-CCM (glioma, adherent)	0.904	> 16000	0.589	570	0.983	> 1020	0.965	> 10000	0.56	24.1	0.964	> 20000	0.921	> 2000	0.788	532	0.93	> 10200	0.916	> 20000
MOG-G-UVW (glioma, adherent)	0.953	> 16000	0.467	255	0.985	> 1020	0.978	> 10000	0.578	26	0.972	> 20000	0.943	> 2000	0.171	6.65	0.982	> 10200	0.982	> 20000
NB12 (neuroblastoma, adherent)	0.978	> 16000	0.403	155	0.978	> 1020	0.944	> 10000	0.743	103	0.977	> 20000	0.978	> 2000	0.58	114	0.901	> 10200	0.895	> 20000
NCI-H28 (mesothelioma, adherent)	0.977	> 16000	0.528	382	0.981	> 1020	–	–	0.838	> 256	0.98	> 20000	0.956	> 2000	0.71	306	0.973	> 10200	0.953	> 20000
NCI-H292 (lung adenocarcinoma, adherent)	0.966	> 16000	0.539	409	0.979	> 1020	0.955	> 10000	0.503	16.3	0.978	> 20000	0.931	> 2000	0.235	9.08	0.98	> 10200	0.96	> 20000
NCI-H810 (large cell lung carcinoma, adherent)	0.947	> 16000	0.618	649	0.987	> 1020	0.982	> 10000	0.49	15	0.938	> 20000	0.988	> 2000	0.263	14	0.983	> 10200	0.851	14300
NCI-H1048 (small cell lung carcinoma, adherent)	0.986	> 16000	0.463	251	0.989	> 1020	0.984	> 10000	0.715	60.2	0.957	> 20000	0.987	> 2000	0.289	17.5	0.964	> 10200	0.859	14000
NCI-H1435 (lung adenocarcinoma, semi-adherent)	0.931	> 16000	0.933	> 5000	0.982	> 1020	0.989	> 10000	0.87	195	0.983	> 20000	0.985	> 2000	0.888	936	0.992	> 10200	0.983	> 20000
NCI-H1437 (lung adenocarcinoma, adherent)	0.968	> 16000	0.545	417	0.986	> 1020	–	–	0.583	27.3	0.986	> 20000	0.983	> 2000	0.281	14.9	0.944	> 10200	0.898	> 20000
NCI-H1568 (lung adenocarcinoma, adherent)	0.96	> 16000	0.473	259	0.982	> 1020	0.966	> 10000	0.504	16.4	0.964	> 20000	0.98	> 2000	0.135	< 4	0.949	> 10200	0.902	> 20000
NCI-H1623 (lung adenocarcinoma, adherent)	0.985	> 16000	0.569	503	0.985	> 1020	0.978	> 10000	0.974	> 256	0.975	> 20000	0.985	> 2000	0.612	139	0.985	> 10200	0.974	> 20000
NCI-H1688 (small cell lung carcinoma, adherent)	0.985	> 16000	0.838	3890	0.984	> 1020	0.977	> 10000	0.809	151	0.947	> 20000	0.987	> 2000	0.826	704	0.979	> 10200	0.537	1600
NCI-H1693 (lung adenocarcinoma, adherent)	0.951	> 16000	0.678	1330	0.97	> 1020	0.941	> 10000	0.627	44.2	0.965	> 20000	0.898	> 2000	0.512	70.2	0.976	> 10200	0.977	> 20000
NCI-H1755 (lung adenocarcinoma, adherent)	0.98	> 16000	0.562	475	0.984	> 1020	0.971	> 10000	0.8	148	0.984	> 20000	0.956	> 2000	0.756	402	0.963	> 10200	0.775	9230
NCI-H1781 (lung adenocarcinoma, adherent)	0.974	> 16000	0.452	231	0.989	> 1020	0.975	> 10000	0.756	87.4	0.985	> 20000	0.989	> 2000	0.227	10.3	0.989	> 10200	0.989	> 20000
NCI-H2023 (lung adenocarcinoma, adherent)	0.925	> 16000	0.502	316	0.949	> 1020	0.964	> 10000	0.668	53.3	0.979	> 20000	0.954	> 2000	0.596	125	0.979	> 10200	0.981	> 20000
NCI-H2029 (small cell lung carcinoma, adherent)	0.992	> 16000	0.926	> 5000	0.992	> 1020	0.992	> 10000	0.94	> 256	0.988	> 20000	0.949	> 2000	0.947	> 1020	0.985	> 10200	0.912	> 20000

Lines with a small IC50 respond at low doses; a fit beyond the top or the lowest dose is shown as a bound at that dose. AUC sums up the same curve from the lowest dose to the 256-fold higher top dose: 1 means no effect, lower means more sensitive. For some assays here: The top dose, if marked as inferred, is not printed in the source and was worked back from the curve model. For some assays here: Drugs with an entry number were screened twice under separate entries, and the two screens often disagree.
